Experimental data taken from PubChem BioAssay AID463173 (ICCB-Longwood Screening Facility, Harvard Medical School, 2010).
About 4,300 (8.3%) of roughly 52,000 compounds were called active. No stated cut-off is given here; in the data, active means survival mostly below about 52% (no sharp cut-off); inactive means mostly above about 56%. This is one part of the list.

test system: DeltatarO mutant; test: growth inhibition of S. aureus wild type versus tarO mutant, primary screen, teichoic acid synthesis inhibitors, RN4220, OD600 (AID 463173); conditions: OD600, 18 h, active compounds read low, screened at 18.75 µg/mL (by protocol)

Question: How did the survival turn out when `COc1ccc(Cl)cc1NC(=O)CN(C(=O)c1ccco1)C1CCCCC1` was run?
Answer: inactive: 113%

Question: For `COc1ccc(C(=O)C[N+]2=C(C)c3ccc(C)n3CC2)cc1`, which survival is on record?
Answer: inactive: 99%

Question: Which survival does the source give for `CC(C)Cn1c(=O)c2ccccc2n2c(CCC(=O)N3CCN(c4ccccc4F)CC3)nnc12` here?
Answer: inactive: 92%

Question: How did the survival turn out when `CCCn1c(-c2ccc(S(=O)(=O)N3CCOCC3)cc2)csc1=Nc1ccc(OCC)cc1` was run?
Answer: inactive: 70%

Question: For `Cc1ccc2nc(-c3ccc(O)cc3)c(Nc3ccc4c(c3)OCCO4)n2c1`, which survival is on record?
Answer: inactive: 70%

Question: For `O=C(NCc1ccccc1Cl)C(=O)NCC(c1cccs1)S(=O)(=O)c1cccs1` (stereo not drawn), which survival is on record?
Answer: inactive: 88%

Question: With `CCCSCCCNC(=O)C1CCN(c2nn3cc(-c4ccc(F)cc4)nc3s2)CC1` as the molecule, how does the survival read?
Answer: inactive: 73%

Question: How did the survival turn out when `CCn1cc(C(=O)N2CCN(c3cccc(Cl)c3)CC2)c(=O)c2cc(S(=O)(=O)N3CCCCC3)ccc21` was run?
Answer: inactive: 78%

Question: With `O=C(CN1CCCC1)N1c2ccccc2Sc2ccccc21` as the molecule, how does the survival read?
Answer: inactive: 88%

Question: For `COc1ccc(OC)c(NC(=O)Cn2c(=O)n(Cc3ccccc3)c(=O)c3ccccc32)c1`, which survival is on record?
Answer: inactive: 77%

Question: How did the survival turn out when `COc1ccc(C(CNC(=O)c2oc3ccc(C)cc3c2C)N2CCOCC2)cc1` (stereo not drawn) was run?
Answer: inactive: 61%

Question: Which survival does the source give for `COc1ccc(OC)c(NC(=O)N2CCN(S(=O)(=O)c3ccc4c(ccn4C)c3)CC2)c1` here?
Answer: inactive: 55%

Question: For `COc1cc(OC)cc(C(=O)Nc2ccc3nc(N4CCCCC4)cc(C)c3c2)c1`, which survival is on record?
Answer: active: 31%

Question: Which survival does the source give for `O=C(CN1C(=O)CCc2cc(S(=O)(=O)N3CCOCC3)ccc21)NCc1ccc(F)cc1` here?
Answer: inactive: 93%

Question: For `CCc1cccc(NC(=O)Nc2csc3c2CCCC3)c1`, which survival is on record?
Answer: inactive: 114%

Question: With `Cc1ccc(CNC(=O)c2ccc3c(c2)nc(C)n3-c2cc(C)cc(C)c2)cc1` as the molecule, how does the survival read?
Answer: inactive: 71%

Question: Which survival does the source give for `O=C(COc1ccccc1F)Nc1ccc(-c2nc3ccccc3s2)cc1` here?
Answer: inactive: 67%

Question: For `Cc1ccc(N(CC(=O)NCCc2ccccc2)S(=O)(=O)N(C)C)cc1`, which survival is on record?
Answer: inactive: 88%

Question: For `COc1cccc(NC(=O)CNC(=O)Cn2c(C)cc3ccccc3c2=O)c1`, which survival is on record?
Answer: inactive: 76%

Question: For `COc1cc(C)ccc1OCCSc1nc2ccc(NC(=O)c3ccc(F)cc3)cc2s1`, which survival is on record?
Answer: inactive: 56%

Question: `CCCCOc1ccc(C(=O)Nc2ccc(-c3nc4ccccc4s3)cc2C)cc1` was tested. Which survival did it give?
Answer: inactive: 67%

Question: With `Cn1ccc2cc(S(=O)(=O)N3CCC(C(=O)NCCc4ccccc4)CC3)ccc21` as the molecule, how does the survival read?
Answer: inactive: 89%

Question: For `N#Cc1ccccc1NC(=O)Cn1cnc2onc(-c3cccc(F)c3)c2c1=O`, which survival is on record?
Answer: inactive: 82%

Question: Which survival does the source give for `Cc1ccc(C)n1-c1nnc(N2CCCC(C(=O)Nc3ccc(C(C)C)cc3)C2)s1` (stereo not drawn) here?
Answer: inactive: 88%

Question: For `COC(=O)c1ccccc1NC(=O)Cn1c(=O)n(Cc2ccc(C(=O)NCc3ccc4c(c3)OCO4)cc2)c(=O)c2ccccc21`, which survival is on record?
Answer: inactive: 63%

Question: Which survival does the source give for `CCOC(=O)CCc1c(C)nc(SCC(=O)O)c(C#N)c1C` here?
Answer: inactive: 82%

Question: How did the survival turn out when `COc1cccc(C(=O)c2sc3nc(-c4ccccc4)cc(C(F)(F)F)c3c2N)c1` was run?
Answer: active: 37%

Question: Which survival does the source give for `CCn1c(SCCN2CCCC2)nnc1C1CCCN(C(=O)c2ccc3c(c2)OCO3)C1` (stereo not drawn) here?
Answer: inactive: 78%

Question: For `CC(C)(C)OC(=O)N1CC2C(C1)C2NC(=O)c1nsc(Cl)c1Cl` (stereo not drawn), which survival is on record?
Answer: inactive: 82%

Question: With `Cc1ccc(C)c(N2C(=O)N(Cc3cc(=O)n4ccccc4n3)c3ccccc3S2(=O)=O)c1` as the molecule, how does the survival read?
Answer: inactive: 71%

Question: How did the survival turn out when `CCOC(=O)c1c(C)oc2ncnc(Nc3ccc(OCC)cc3)c12` was run?
Answer: inactive: 89%

Question: `CC1(C)CC(=O)c2cc(-c3nc(-c4ccc(Cl)cc4)cs3)c(=O)n(-c3ccc(Cl)cc3)c2C1` was tested. Which survival did it give?
Answer: inactive: 68%

Question: How did the survival turn out when `COc1ccc(NC(=O)Cn2nc(-c3ccncc3)ccc2=O)cc1Cl` was run?
Answer: inactive: 92%

Question: Which survival does the source give for `CCn1c(=N)c(S(=O)(=O)c2ccc(C)cc2)cc2c(=O)n3ccccc3nc21` here?
Answer: inactive: 83%

Question: With `O=C(CNC1CCCC1)Nc1ccc(N2CCCC2)cc1` as the molecule, how does the survival read?
Answer: inactive: 61%

Question: `CCc1ccc(NC(=O)CN2C(=O)C3(SCC(=O)N3c3ccccc3)c3ccccc32)cc1` (stereo not drawn) was tested. Which survival did it give?
Answer: inactive: 129%

Question: With `CCOC(=O)C1CCN(CC(=O)N2CCCc3c2c(=O)oc2ccc(OCc4ccccc4)cc32)CC1` as the molecule, how does the survival read?
Answer: inactive: 105%

Question: With `COc1ccc(-c2onc(C)c2C)cc1S(=O)(=O)N(C)Cc1ccco1` as the molecule, how does the survival read?
Answer: inactive: 85%

Question: With `CN1C(=O)C2(SCC(=O)N2c2cccc(C(F)(F)F)c2)c2ccccc21` (stereo not drawn) as the molecule, how does the survival read?
Answer: inactive: 113%

Question: How did the survival turn out when `CCOC(=O)C1CCC(CN(Cc2ccc(Cl)cc2)S(=O)(=O)c2ccc(Br)cc2)CC1` (stereo not drawn) was run?
Answer: inactive: 76%

Question: For `CCCN1CCN(CCNC(=O)Nc2ccc(OC)c(OC)c2)CC1`, which survival is on record?
Answer: inactive: 77%

Question: Which survival does the source give for `CCS(=O)(=O)N1CCc2cc(C(=O)NCCc3ccccc3)ccc21` here?
Answer: inactive: 82%

Question: `C=CCc1cccc2cc(C(N)=O)c(=N)oc12` was tested. Which survival did it give?
Answer: inactive: 88%

Question: Which survival does the source give for `CCOc1ccc(NC(=O)c2cn(C)c(=O)c3cc(OC)c(OC)cc23)cc1` here?
Answer: inactive: 69%

Question: `Cc1cc(C)n(CCc2nc3c4ccccc4nc(N4CCN(c5ccccc5F)CC4)n3n2)n1` was tested. Which survival did it give?
Answer: inactive: 85%

Question: With `COc1ccc(CCNc2ncnc3c2cnn3-c2cccc(Cl)c2)cc1` as the molecule, how does the survival read?
Answer: inactive: 102%

Question: With `CC(C)CCNC(=O)c1ccc2c(c1)NC(=O)C(CS(=O)(=O)Cc1cccc(Br)c1)N2` (stereo not drawn) as the molecule, how does the survival read?
Answer: inactive: 116%

Question: How did the survival turn out when `Cc1ccc(NC(=O)/C(C#N)=C/c2ccc(C)o2)cc1` was run?
Answer: inactive: 79%

Question: `Cc1ccc(Cn2ccnc2SCC(=O)NCc2ccc(F)cc2)cc1` was tested. Which survival did it give?
Answer: inactive: 101%

Question: How did the survival turn out when `COc1ccc(-c2cc(C(F)F)nc(-n3nc(C)cc3C)n2)cc1` was run?
Answer: inactive: 91%

Question: Which survival does the source give for `COc1ccc(NC(=O)CSc2nc3ccccc3n2CC(=O)N(C)c2ccc(F)cc2)cc1` here?
Answer: inactive: 87%

Question: Which survival does the source give for `COCCNC(=O)CCCN1C(=O)c2ccccc2Sc2ncccc21` here?
Answer: inactive: 70%

Question: How did the survival turn out when `Cc1ccc(N=Cc2ccc(C)o2)cc1` was run?
Answer: inactive: 98%

Question: Which survival does the source give for `COc1ccc(-c2nc(CSCC(=O)N3CCN(c4ccc(OC)cc4)CC3)c(C)o2)cc1` here?
Answer: inactive: 77%

Question: `CC1CCCCN1C(=O)c1ccccc1F` (stereo not drawn) was tested. Which survival did it give?
Answer: inactive: 98%

Question: For `Cc1ccc(-n2c(C)cc(CO)c2C)cc1`, which survival is on record?
Answer: inactive: 84%

Question: How did the survival turn out when `O=S(=O)(c1cccc(F)c1)N1CCC(c2nc3ccccc3s2)CC1` was run?
Answer: inactive: 98%

Question: With `CCS(=O)(=O)N1CC(=O)N(c2cccc(Cl)c2C)C(C)(C(=O)NC2CCCCC2)C1` (stereo not drawn) as the molecule, how does the survival read?
Answer: inactive: 76%
